PubChem BioAssay AID493208 (National Center for Advancing Translational Sciences (NCATS), 2011)
Hit rate of the full screen: of about 44,000 compounds, about 340 (0.77%) were called active. Another 5% or so got no clear call; they are omitted. Calls follow the shape of the dose curve; as a rule, active = well fitted inhibition curve with a large enough effect; inconclusive = small, poorly fitted or top-dose-only effect; inactive = flat fitted curve, though single readings scatter. Some of the results follow.

assay: Acumen qHTS Assay for Inhibitors of the mTORC1 Signaling Pathway in MEF (Tsc2-/-, p53-/-) Cells: Sytravon; details: phospho-rpS6 immunofluorescence/PI, 24 h; series mostly up to 38.3 µM; activity change, negative = inhibition: at the top concentration;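 also: plate controls were DMSO for no effect and rapamycin for full effect; nearly all actives have a fitted effect of over 50% in size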
In short: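 Compounds act on Tsc2-/-, p53-/- fibroblasts carrying an empty vector for 24 h before fixation and dual staining for phospho-S6 and DNA (propidium iodide). Values are percentages of cells above a rapamycin-defined pS6/PI threshold.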

Activity change, negative = inhibition, inactive:
COC(=O)CCCn1c(-c2ccc(C)cc2)c(C)n2c3c(=O)n(C)c(=O)n(C)c3nc12 -2.6%, COc1ccc(CNC(=O)CC2N=C3c4ccccc4N=C(SCC(=O)Nc4ccc(C(C)C)cc4)N3C2=O)cc1 (configuration not stated) -0.563%, COc1ccc(-c2cn3c(n2)sc2cc(C(=O)NC(C)C45CC6CC(CC(C6)C4)C5)ccc23)cc1 (configuration not stated) 6.05%, COCc1cc(C)nc2sc3c(c12)NC(c1ccccc1C(=O)O)N(c1cccc(C(F)(F)F)c1)C3=O (configuration not stated) -19.2%, COc1cc([N+](=O)[O-])ccc1NC(=O)c1nc2ccccc2n(C)c1=O -1.07%, Cc1ccc(S(=O)(=O)c2nc(-c3cccc(Br)c3)oc2N2CCCCCC2)cc1 -7.48%, O=C(CSc1nnc2[nH]c(=O)cc(-c3ccccc3)n12)Nc1ccc(OC(F)(F)F)cc1 3.14%, CCn1ccc2c(OCC(=O)Nc3ccc(C)c(Cl)c3)cccc2c1=O -0.412%, COc1cccc(N2CCN(C(=O)CCSCc3ccccc3F)CC2)c1 12.5%, CCOC(=O)C1CCN(S(=O)(=O)c2cc3c4c(c2)C(C)C(=O)N4CCC3)CC1 (configuration not stated) -1.26%, Cc1cccc(C(=O)Nc2c(C(=O)N3CCN(c4ccc(F)cc4)CC3)oc3ccccc23)c1 3.4%, O=C(Cc1ccc(Cl)cc1)NCC(c1cccs1)S(=O)(=O)c1ccccc1 (configuration not stated) -6.42%, CCCSc1ncc(Cl)c(C(=O)Nc2sc(C(C)=O)c(C)c2C(=O)OCC)n1 7.41%, Cc1cc(=O)n(Cc2c(F)cccc2Cl)c2c1c(C)nn2-c1cccc(F)c1 0.851%, Cc1ccc(S(=O)(=O)N(CC(=O)Nc2ccc(F)cc2F)Cc2ccc(F)cc2)cc1 -21.7%, CC(=O)Nc1ccc(NC(=O)c2cc(CN3CCCC3)on2)cc1 -4.65%, Cc1ccc(C)c(NC(=O)CSc2nnc3[nH]c(=O)cc(-c4ccccc4)n23)c1 0.365%, COc1cc(C(=O)NC(c2ccccc2Cl)c2cc(Cl)c3cccnc3c2O)cc(OC)c1OC (configuration not stated) -20.3%, COc1ccccc1C(=O)Nc1cccc(C(=O)OCc2cc(=O)n3c4c(sc3n2)CCCC4)c1 0%, CCOc1ccc(NC(=O)Cn2c(=O)n(CC3CCC(C(=O)NCCc4ccccc4)CC3)c(=O)c3ccccc32)cc1 (configuration not stated) 7.72%, COc1ccc(NC(=O)CSc2oc(-c3ccco3)nc2S(=O)(=O)c2ccc(C)cc2)c(OC)c1 -0.875%, CN(C)S(=O)(=O)c1ccc2c(c1)N(CC(=O)Nc1cccc(C(F)(F)F)c1)C(=O)CS2 8.39%, Cc1c(CNC(C)CCc2ccccc2)c(C(=O)O)c(C)n1Cc1ccc(F)cc1 (configuration not stated) -0.39%, CCOC(=O)c1ccccc1NC(=O)NCc1c(-n2cccc2)sc2c1CCCC2 2.58%, CCOc1ccc(NC(=O)C(CC(C)C)N2Cc3ccccc3C2=O)cc1 (configuration not stated) -15%, CC(C)(C)OC(=O)N1CCC(N2CCN(Cc3ccccc3)C(=O)C2=O)CC1 14.8%, Cc1onc(-c2ccccc2Cl)c1C(=O)Oc1ccccc1F 11.2%, COc1cccc(C2c3c(oc4cc(C)cc(C)c4c3=O)C(=O)N2CCc2ccc(OC)c(OC)c2)c1 (configuration not stated) -8.46%, CCCc1cc(=O)n2c(C(=O)Nc3ccc(OCC)cc3)c(C(=O)Nc3ccc(C)cc3)sc2n1 -0.132%, COc1ccccc1CNC(=O)CCC1N=C2c3ccccc3N=C(SCC(=O)Nc3ccc(F)cc3)N2C1=O (configuration not stated) -5.98%, Cc1ccc2c(c1)c1c(c(=O)n(-c3cccc(Cl)c3)c(=O)n1CC(=O)NCCC1=CCCCC1)n2C 3.6%, CCn1c(SCc2ccccc2C)nc(=O)c2c(C(=O)OC)cc(C3CC3)nc21 -18.6%, CN(CC(=O)NCc1ccc(Cl)cc1)S(=O)(=O)c1ccc2[nH]c3c(c2c1)CCCC3 -3.36%, COc1ccc(CNc2nc(-c3ccccc3)nn2S(=O)(=O)c2ccccc2)cc1 11.6%, CCOC(=O)C1CCC(CN(Cc2ccc(OC)cc2)S(=O)(=O)c2ccc(F)c(C(=O)Nc3ccc(C)c(C)c3)c2)CC1 (configuration not stated) 15.3%, COc1ccc(-n2c(Cc3ccccc3)nnc2SCc2nc(-c3cccs3)no2)cc1 6.44%, O=c1cc(CSc2ncn[nH]2)[nH]c2ccc(F)cc12 -9.22%, CN(C)C1(CNC(=O)COc2ccc([N+](=O)[O-])cc2)CCCCC1 -7.02%, CCN(CC)S(=O)(=O)c1ccc2c(c1)N(CC(=O)N1CCN(c3cccc(Cl)c3)CC1)C(=O)CO2 -7.11%, CCC1CN(C(=O)N2CCC(C(=O)NCCc3cc(OC)ccc3OC)CC2)c2ccccc2O1 (configuration not stated) 0.521%, CCN(C(=O)Cn1c(=O)n(CCCS(=O)(=O)C2CCCCC2)c(=O)c2ccccc21)c1cccc(C)c1 -3.99%, COc1cccc(-n2cc(C(=O)Nc3cccc(C(F)(F)F)c3)c3ccccc3c2=O)c1 7.97%, CC(C)Oc1ccc(CNC(=O)c2ccc(CS(=O)c3cccc(Cl)c3)o2)cc1 (configuration not stated) -8.02%, COc1ccccc1N1CCN(C(=O)Cn2ncc3ccsc3c2=O)CC1 10.9%, Cc1ccc(NC(=O)N2CCc3cc(S(=O)(=O)N4CCC(C)CC4)ccc32)cc1 -1.18%, CC1CCN(C(=O)Cn2c(=O)n(CCCCCC(=O)NCc3ccccc3Cl)c(=O)c3sccc32)CC1 0.119%, CC(=O)Nc1cc(-c2nc3cc(Cl)ccc3o2)ccc1C 0.167%, Cc1ccc(Cl)cc1Nc1nn2c(=O)c3ccc(C(=O)Nc4ccc(F)cc4)cc3nc2s1 -0.483%, Cc1cc(Cl)ccc1NC(=O)Cn1nc(C)c2c(C)n(-c3ccccc3)nc2c1=O 0.532%, CC1=C(C(=O)Nc2ccccc2)C(c2ccccc2C)n2nc(SCC(=O)c3ccc(C)cc3)nc2N1 (configuration not stated) -0.155%, COCCCNc1nc2c(S(=O)(=O)c3ccccc3)nnn2c2ccc(Cl)cc12 -1.44%, O=C(NCc1cccs1)c1nn(-c2ccccc2Cl)nc1CO 2.23%, Cc1[nH]n(-c2ccccc2)c(=O)c1C(c1cc(Cl)ccc1O)c1c(C)[nH]n(-c2ccccc2)c1=O 14.2%, CCOC(=O)c1ccccc1NC(=O)N1CCN(Cc2cc(=O)n3nc(-c4ccccc4)sc3n2)CC1 0%, CCOc1ccc(-c2cc(CCCC(=O)NCCc3ccc(Cl)cc3)no2)cc1 -0.321%, O=C(NCCc1csc(-c2ccc(C(F)(F)F)cc2)n1)c1ccc(F)c(F)c1 -22.5%, Cc1cccc(NC(=O)CSc2nc(-c3cccs3)cc(C(F)(F)F)c2C#N)c1C -20.1%
